According to the antibiotic and cytotoxicity screens of Wong et al. (2023):
This is one part of the list.

Experiments:
HSkMC = human skeletal muscle cells; test: cytotoxicity call (relative viability < 0.9); conditions: 10 µM
HepG2 = test: cytotoxicity call (relative viability < 0.9); conditions: 10 µM
S. aureus RN4220 = test: growth inhibition call (relative growth <= 0.2); conditions: 50 µM

| Compound | cytotoxicity call (HSkMC) | cytotoxicity call (HepG2) | growth inhibition call (S. aureus RN4220) |
| --- | --- | --- | --- |
| C[C@@H]1CCCCO[C@@H](CN(C)CC2CCCCC2)[C@@H](C)CN([C@@H](C)CO)C(=O)c2cc(NC(=O)Cc3ccccc3)ccc2O1 | inactive | inactive | inactive |
| CC1(N)CCN(c2cccnc2NC(=O)c2nc(-c3ncccc3C(F)(F)F)cnc2N)CC1 | inactive | inactive | inactive |
| C[C@@H]1CCCCO[C@H](CN(C)C(=O)C2CCCCC2)[C@H](C)CN([C@@H](C)CO)C(=O)c2cc(NC(=O)CCC(F)(F)F)ccc2O1 | inactive | inactive | inactive |
| C[C@H]1CN([C@@H](C)CO)C(=O)c2cccc(NC(=O)CCCCCC(=O)Nc3ccccc3N)c2O[C@@H]1CN(C)Cc1ccccc1 | active | inactive | inactive |
| COc1c2ccoc2nc2c(OC)c(OCC(O)C(C)(C)O)ccc12 (stereo not given) | inactive | active | inactive |
| Cc1noc(C)c1S(=O)(=O)Nc1ccc2c(c1)CC(=O)N([C@@H](C)CO)C[C@H](C)[C@H](CN(C)Cc1ccc(Oc3ccccc3)cc1)O2 | inactive | inactive | inactive |
| CC(C)CCN1CCn2c(CO)nnc2C1 | inactive | inactive | inactive |
| C[C@@H]1CN([C@H](C)CO)C(=O)c2c(c3ccccc3n2C)-c2ccccc2CO[C@@H]1CN(C)C(=O)Nc1cccc(F)c1 | inactive | inactive | inactive |
| C[C@@H]1CCCCO[C@@H](CN(C)C(=O)Nc2ccc(F)cc2)[C@@H](C)CN([C@H](C)CO)C(=O)c2cc(NC(=O)c3ccccc3)ccc2O1 | inactive | inactive | inactive |
| CC(=O)Nc1ccc(S(=O)(=O)Nc2onc(C)c2C)cc1 | inactive | inactive | inactive |
